# Test results from the RNAGym collection of RNA variant scans (doi:10.7554/elife.90254).
# The source gives no read counts; variants with many changes may rest on few reads.
# B1: OR4K15 (parent)
# chain: GUUAACGGUCAUAGGCCAUGGAAACUAGGAGCACCAUUUCGCUGCCAGUGAAGAAAUGAACAAAGAAAAUCUGGGCCAGGCAGGCAUCAAAAGAAAUAGUCUUGCGCUCAACCAGAAAGUCUGUAAUCAUUUUAAGGGUA
# Variants of: B1
# Test: self-cleavage, relative activity (ratio to wild type); higher = more cleavage; in vitro, sequencing; the parent is a self-cleaving ribozyme
row,Variant,self-cleavage
1,GUUAACGGUCAUAGGCCAUGGAAACUAGGAGCACCAUUUCACUGCCAGUGAAGAAAUGAGCAAAGAAAAUCUGGGCCAGGCAGGCAUCAAAGGAAAUAGUCUUGCGCUCAACCAGAAAGUCUGUAAUCAUUUUAAGGGUA [G41A A60G A92G],0.94
2,GUUAACGGUCAUAGGCCAUGGAAACUAGGAGCACCAUUUCGCCGCCAGUGAGGAAAUGAACAAAGAAAAUCUGGGCCAGACUGGCAUCAAAACAAAUAGUCUUGCGCUCAACCAGAAAGUCUGUAAUCAUUUUAAGGGUA [U43C A52G G80A A82U G93C],0.2
3,GUUAACGGUCAUAGGCCAUGGAAACUAGGAGCACCAUUUCGCUGCCAGUGAAGAAAUGAACAAAGAAAAUCUGGGCCAGGCAGGCAUCAAAAGGAAUAGUCUUGCGCUCGACCUGAAAGUCUGUAGUCAUUUUAAGGGUA [A94G A110G A114U A126G],0.01
4,GUUAACGGUCAUAGGCCAUGGAAACUAGGAGCACCAUUUCGCUGCCAGUGAAGAAAUGAACGAAGAAAAUCUGGGCCAGGCAGGCAUCAAAAGAAGUAGUCUUGCGCUCGACCAGAAAGUCUGUAAUCAUUUUAAGGGUA [A62G A96G A110G],0.16
5,GUUAACGGUCAUAGGCCAUGGAAACUAGGAGCACCAUUUCGCUGCCAGUGAGGAAAUGAACAAAGAAAAUCUGGGCCAGGCAGGCAACAAAAGAAAUAGUCUUGCGCUCGACCAGAAAGUCUGUAAUCAUUUUAAGGGUA [A52G U87A A110G],0.11
6,GUUAACGGUCAUAGGCCAUGGAAACUAGGAGCGCCAUCUCGCUGCCAGUGAAGAAAUGAACAAAGAAAAUCUGGGCCAGGCUGGCAUCAAAAGAAAUAGUCUUGCGCUCAACCAGAAAGUCUGUAAUCAUUUUAAGGGUA [A33G U38C A82U],0.35
7,GUUAACGGUCACAGGCCAUGGAAACUGGGAGCACCAUUUCGCUGCCAGUGAAGAAGUGAACAAAGAAAAUCUGGGCCAGGCAGGCAUCAAGAGAAAUAGUCUUGCGCUCAACCAGAAGGUCUGUAAUCAUUUUAAGGGUA [U12C A27G A56G A91G A118G],0.4
8,GUUAACGGUCAUAGGCCAUGGAAACUAGGAGCACCAUCUCGCUGCCAGUGGAGAAAUGAACAAAGAAAAUCUGGGCCAGGCAGGCAUCAAGAGAAAUAGUCUUGCUCUCAACCAGAAAGUCUGUAAUCAUUUUAGGGGUA [U38C A51G A91G G106U A135G],0.02
9,GUUAACGGUCAUAGGCCAUGGAAACUAGGAGCACCAUUUCGCUGCCAGUGAAGAAAUGAACAAGGAAAAUCUGGGCCAGGCAGGCAUCAAAAGAAAUAGUCUUGCGCUCAACCAGAAAGUCUGUAGACACUUUAAGGGUA [A64G A126G U127A U130C],0.32
10,GUUGACGGUCAUAGGCCAUGGAAACUAGGAGCGCCAUUUCGCUGCCAGUGAAGAAAUGAACAAAGAAAAUCUGGGCCAGGCAGCCAUCAAAAGAAAUAGUCUUGCGCUCAACCAGAAAGUCUGUAAUCAUUUUAAGGGUA [A4G A33G G84C],0.37
11,GAUAACGGUCAUAGGCCAUGGAAACUAGGAGCACCAUUUCGCUGCCAGUGAAGAAAUGAACAAAGAAAAUCUGGGCCAGGCAGGCAUCAAAAGAAAUAGUCUUGCGCUCAACCAGGAAGUCUGUAAUCACUUUAAGGGUA [U2A A116G U130C],0.39
12,GUUAACGGUCAUAGGCCAUGGAAACUAGGAGCACCAUUUCGCAGCCAGUGAAGAAACGAACAAAGAAAAUCGGGACCAGGCAGGCAUCAAAAGAAAUAGUCUUGCGCUCAACCAGAAAGUCUGUAAUCAUUUUAAGGGUA [U43A U57C U72G G75A],0.19
13,GUUAACGGUCAUAGGCCAUGGAAACUAGGAGCACCAUUCCGCUGCCAGAGAAGAAAUGAACAAAGAAAAUCUGGGCCAGGCAGGCAUCAAAAGAAGUAGUCUUGCGCUCAACCAGAAAGUCUGUAAUCAUUUUAAGGGUA [U39C U49A A96G],1.97
14,GUUAACGGUCGUAGGCCAUGGAAACUAGGAGCACCAUUUCGCUGCCGGUGAAGAAGUGAACAAAGAAAAUCUGGGCCAGGCAGGCAUCAAAAGAAAUAGUCUUGCGCUCAACCAGAAAGUCUGUGAUCAUUUUAUGGGUA [A11G A47G A56G A125G A135U],0.37
15,GUUAACGGUCAUAGGCCAUGGAGACUAGGAGCACCAUCUCGCUGCCUGUGAAGAAAUGAACAAAGAAAAUCUGGGCCAGGCAGGCAUCAAAAGAAAUAGUCUUGCGCUCAACCAGAAAGUCUGUAAUCAUUUUAAGGGUA [A23G U38C A47U],0.67
16,GUUAACGGUCAUAGGCCAUGGAGGCUAGGAGCACCAUUUCGCUGCCAGUGAAGGAAUGAACAAAGAAAAUCUGGGCCAGGCAGGCAUCAAAAGAAAUAGUCUUGCGCUCAACCAGAAAGUCUGUAAUCAUUUUAAGGGUA [A23G A24G A54G],1.15
17,GUUAACGGCCUUAGGCCAUGGAAACUAGGAGCACCAUGUCGCUGCCAGUGAAGAAAUGAACAAAGAAAAUCUGGGCCAGGCAGGCAUCAAAAGAAAUAGUCUUGCGCUCAACCAGAAAGUCUGUAAUCAUUUUAAGGGUG [U9C A11U U38G A140G],1.1
18,GUUAACGGUCAUAGGCCAUGGAAACUAGGAGCACCAUUUCGCUGCCAGUGAAGAAAUGAACAAAGAAGAUCUGGGCCGGGCAGGCAUCAAAAGAAAUAGUCUUGCGCUCAACCAGAAAGUCUGUAAUCCUUUUAAGGGUA [A68G A78G A129C],0.18
19,GUUAACGGUCAUAGGCCAUGGGAACUAGGAGCACCAUUUCGCUGCCAGUGAAGAAAUGAACAAAGAAAAUCUGGGCCAGGCAGGCAUCAAAAGAAAUAGUCUUGCGCUCAACCAGAAAGUCUGAAAUCAUCUUAAGGGUA [A22G U124A U131C],1.05
20,GUUAACGGUCAUAGGCCAUGGAUACUAGGAGCACCAUUUCGCUGCCAGCGAAGAAAUGAACAAAGAAAAUCUGGGCCAGGCAGGCAUCAAAAGAAAUAGUCUUGCGCUCAACCAGAAAGUCUGUAAUCAAUUUAAGGGUA [A23U U49C U130A],1.06
21,GUUAACGGUCAUAGGCCAUGGAAACUAGGAGCACCAUUUCGCUGCCAGUGAAGAAAUGAACAAAGAAAAUCUGGGCCAGGCAGGCAUCAAAAGAAACAGUCACGCGCUCAACCAGAAAGUCUGUAAUCAUUUUAAGGGUA [U97C U102A U103C],0.04

row,Variant,self-cleavage
1,GUUAACGGUCAUAGGCCAUGGAAACUAGGACCACCAUUUCGCUGCCAGUGAAGAAAUGAGCAAAGAAAAUCUGGGCCAGGCAGGCACCAAAAGAAAUAGUCUUGCGCUCAACCAAAAGGUCUGUAAUCAUUUUAAGGGUA [G31C A60G U87C G115A A118G],0.01
2,GUUAACGGUCAUAGGCCGUGGAAGCUAGGAGCACCAUUUCGCUGCCAGUGAAGAAAUGAACAAAGAAAAUCUGGGCCAGGCAGGCAUCAAAAGAAAUAGUCUUGCGCUCAACCAGAAAGCCUGUAAUCAUUUUAAGGGCA [A18G A24G U120C U139C],0.79
3,GUUAACGGUCAUAGGCCAUGGAAACUAGGAGCACCUUUUCGCCGCCAGCGAAGAAAUGAACAAAGAAAAUCUGGGCCAGGCAGGCAUCAAGAGAAAUAGUCUUGCGCUCAACCAGAAAGUCUGUAAUCGUUUUAAGGGUA [A36U U43C U49C A91G A129G],0.27
4,GUUAACGGUCAUAGGGCAUGGAGAUUAGGAGCACCAUUUCGCUGCCAGUGAAGAAAUGAACAAAGAAAAUCUGGGCCAGGCAGGCAUCAAAAGAAAUAGUCUUGCGCUCAACCAGAAAGUCUGUAAUCAUCUUAAGGGUA [C16G A23G C25U U131C],0.25
5,GUUAACGGCCAUGGGCCAUGGAAACUAGGAGCACCAUUUCGCUGCCAGUGAAGAAAUGAACAAGGAAAAUCUGGGCCUGGCAGGCAUCAAAAGAAAUAGUCUUGCGCUCAACCAGAAUGUCUGUAAUCAUUUUAAGGGUA [U9C A13G A64G A78U A118U],0.31
6,GUUAACGGUCAUAGGCCAUGGAAACUAGGAGCACCAUUACGCUGCCAGUGAGGAAGUGAACAAAGAGAAUCUGGGCCAGGCAGGCAUCAAAAGAAAUAGUCUUGCGCUCAACCAGGAAGACUGUAAUCAUUUUAAGGGUA [U39A A52G A56G A67G A116G U120A],0.76
7,GUUAACGGUCAUAGGCCAUGGAAACUAGGAGCACCAUUUCGCUGCCAGUAAAGAAAUGAACAAAGAAAAUCUGGGCCAGGCAUGCAUCAAAAGAAAUAGUCUUGCGCUCAACCAGAAAGUCUGUAAUCAUUCUAAGGGUA [G50A G83U U132C],0.97
8,GUUAACGGUCAUAGGCCAUGGUAACUAGGAGCACCCUUUCGCUGCCAGCGAAGAAAUGAACAAAGAAAAUCUGGGCCAGGCAGGCAUCAAGAGAAAUAGUCUCGCGCUCAACCAGAAAGUCUGUAAUCAUUUUAAGGGUA [A22U A36C U49C A91G U103C],0.86
9,GUUAACGGUCAUAGGCCAUGGAAACUAGGAGCACCAUUUCGCUGCAAGUGAAGAAAUGAACAAAGAAAAUCAGGGCCUGGCAGGCAUCAAAAGAAAUAGUCUUGCGCUCAACCAGAAAGUCUGUAAUCAUUUUAAGGGUA [C46A U72A A78U],0.07
10,GUUAACGGUCGUAGGCCAUGGGAACUAGGAGCACCAUUUCGCUGCCAGUGAAGAAAUGAACAAAGAAAAUCUGGGCCAGGCAGGCAUCAAAAGAAAUAGUCUUGCGCUCAACCAGAAGGUCUGUAAUCAUUUUAAGGGUA [A11G A22G A118G],1.06
11,GUUAACGGUCAUAGGCCAUGGGAACUAGGAGCACCACUUCGCUGCCAGUGAAGAAAUGAACAAAGAAAAUCUGGGCCUGGCAGGCAUCAAAAGAAAUAGUCUUGCGCUCAACCAGAUAGUCUGUAAUCAUUUUAAGGGUA [A22G U37C A78U A117U],0.12
12,GUCAACGGUCAUAGGCCAUGGAAACUAGGAGCACCAUUUCGCUGCCAGUGAAGAAACGAACAAAGAAAAUCUGGGCCAGGCGGGCACCAAAAGAAGUAGUCUUGUGCUCAACCAGAAAGCCCGUAAUCAUCUUAAGGGUA [U3C U57C A82G U87C A96G C105U U120C U122C U131C],0
13,GUUAGCGGUCAUAGGCCAUGGAAACUAGGAGCACCAUAUCGCUGCCAGUGAAGAAAUGAUCCAAGAAAAUCUGGGCCAGGCGGGCAUCAAAAGAAAUAGCCUUGCGCUCAACCAGAAAGUCUGUAAUCAUUUUAAGGGUA [A5G U38A A60U A62C A82G U100C],1.17
14,GUUAACGGUCAUAGGCCAUGGAAACUAGGAGCACCAUUUCGCUGCCAGUGAAGAAAAGAACAAAGAAAAUAUGGGCCAGGCAGGCAUCAAAAGAAAUAGUCUUGCGCUCAACCAGGAAGUCUGUAAUCAUUUUAAGGGUA [U57A C71A A116G],0.18
15,GUGAACGGUCAUAGGCCAUGGAAACUAGGAGCACCAUUUCGCUGCCAGUGGAGAAAUGAACAAAGACAAUCUGGGCCAGGCAGGCAUCAAGAGAAAUAGUCUUGCGCUCAACCAGAAAGUCUGUAAUCGUUUUAAGGGUA [U3G A51G A67C A91G A129G],1.35
16,GUUAACGGUCAUAGGCCAUGGAAACUAGGAGCACCAUUACGCUGCCAGUGAAGAAAUGAACAAAGAAAAUCUGGGCCAGGCAGGCAUCAAAAGAAUUAGUCUUGCGCUCAACCAGAAAGUCUAUAAUCAUUUUAAGGGUA [U39A A96U G123A],1.74
17,GUUAACGGUCUUAGGCCAUGGAAACUAGGAGCACCAUCCCGCUGCCAGUGAAGAAAUGAACAAAGAAAAUCUGGGCCAGGCAGGCAUCAAAAGAAAUAGCCUUGCGCUCAACCAGAAAGUCUGUAAUCAUUUUAAGGGUA [A11U U38C U39C U100C],1.38
18,GUCAACGGUCAUAGGCCGCGGAAACUAGGAGCACCACUUCGCUGCCAGUGAGGAAAUGAACAAAGGAAAUCUGGGCCAGGCAGGCAUCAAAAGAAAUAGUCUUGCGCUCAACCAGAUAGUCUGUAAUCGUUUUAAGGGUA [U3C A18G U19C U37C A52G A66G A117U A129G],0.47
19,GUCAACGGUCAUAGGCCAUGGGAACUAGGAGCACCAUUUCGCUGCCAGUGAAGAAAUGAACAAAGAAAACCUGGGCCAGGCAGGCAUCGAAAGGAAUAGUCUUGCGCUCAACCAGAAGGUCUGUAAUCAUUUUAAGGGUA [U3C A22G U70C A89G A94G A118G],0.3
20,AUUAACGGCCAUAGGCCAUGGAAACUAGGAGCACCAUUUCGCUGCCAGUGAAGAAGUGAACAAAGAAAAUCUGGGCCAGGCAGGCAUCAAAAGAAAUGGUCUUGCGCUCAACCAGGAAGUCCGUAAUCAUUUUAAGGGCA [G1A U9C A56G A98G A116G U122C U139C],0.15
